Test results from PubChem BioAssay AID360 (National Center for Advancing Translational Sciences (NCATS), 2006).
Out of some 48,000 compounds screened, about 550 (1.1%) were called active. Not shown: some 4% with an inconclusive outcome. Rule as the data show it: active = potency below about 15 µM; inconclusive = mostly about 16 µM to 33 µM; inactive = weaker than that. This is one part of the list.

Target: Lysosomal acid glucosylceramidase (Homo sapiens) (UniProt P04062)
Assay: Glucocerebrosidase;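 also: the screen sought inhibitors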
Details: purified enzyme, resorufin glucoside fluorescence (screen aimed at inhibitors), 20 min
Method in brief: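 Wild-type enzyme at 0.2 nM final in 50mM citric acid/KH2PO4, 10mM sodium taurocholate, 0.01% tween-20, pH 5.9, with resorufin beta-D-glucopyranoside at 30 uM final. Compounds titrated, 20 min at RT, red fluorescence read; AC50 from titration.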
Potency is read from the fitted curve at half-maximal effect.

Sequence of UniProt P04062 (P04062 whole entry, looked up): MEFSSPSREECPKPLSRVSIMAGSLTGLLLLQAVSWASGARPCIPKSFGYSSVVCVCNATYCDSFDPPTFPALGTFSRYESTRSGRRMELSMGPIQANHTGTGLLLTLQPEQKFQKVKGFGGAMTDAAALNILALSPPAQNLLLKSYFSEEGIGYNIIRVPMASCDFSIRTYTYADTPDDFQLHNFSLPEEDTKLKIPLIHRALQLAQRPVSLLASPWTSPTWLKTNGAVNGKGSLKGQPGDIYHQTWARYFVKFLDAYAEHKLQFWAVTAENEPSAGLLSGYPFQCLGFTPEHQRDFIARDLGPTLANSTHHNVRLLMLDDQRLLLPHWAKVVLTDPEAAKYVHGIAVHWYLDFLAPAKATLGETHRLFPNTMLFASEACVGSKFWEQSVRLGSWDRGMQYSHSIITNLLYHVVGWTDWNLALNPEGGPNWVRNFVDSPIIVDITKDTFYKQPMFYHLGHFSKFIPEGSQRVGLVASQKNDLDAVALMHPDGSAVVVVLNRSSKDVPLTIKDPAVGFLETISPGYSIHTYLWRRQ

Potency, inactive:
COc1cccc(CNC(=O)C2CCCN(S(C)(=O)=O)C2)c1 (stereo not given) > 76.9 µM
COc1cc(OC)cc(-c2nc3nc(C)c(CCC(=O)O)c(C)n3n2)c1 > 76.9 µM
O=C(NCc1cccs1)C1CCC(CNS(=O)(=O)c2ccc(Br)s2)CC1 (stereo not given) > 76.9 µM
CC(=O)C1=C(Nc2ccc(C)cc2)CC(C)(O)C(C(C)=O)C1c1ccco1 (stereo not given) > 76.9 µM
COCCn1c(C)cc(C(=O)COC(=O)c2cc3c(s2)CCC3)c1C > 76.9 µM
N#CCSc1nnc(CNc2cccc(Cl)c2)o1 > 76.9 µM
COc1cc(C(=O)NCCc2ccc3c(c2)OCCO3)ccc1OCC(=O)N1CCOCC1 > 76.9 µM
COc1ccc(CN(Cc2cc3ccc(C)cc3[nH]c2=O)Cc2nnnn2C2CCCC2)cc1 > 76.9 µM
Cc1cc(C)c2[nH]c(=O)c(C(c3nnnn3Cc3ccc4c(c3)OCO4)N3CCCCC3)cc2c1 (stereo not given) > 76.9 µM
CCOc1ccccc1C1C2C(=O)N(c3ccccc3)C(=O)C2ON1c1ccccc1 (stereo not given) > 76.9 µM
COC(=O)c1ccccc1NC(=O)N1CCCC1 > 76.9 µM
CCOC(=O)C1CCCN(CC(O)COc2ccc(OC)cc2C(C)(C)C)C1 (stereo not given) > 76.9 µM
CCC(C)(C)n1nnnc1C(c1ccc2ncccc2c1)N1CCN(Cc2ccc3c(c2)OCO3)CC1 (stereo not given) > 76.9 µM
COc1ccc2c(c1)CCc1c(C(=O)N3CCCc4ccccc43)noc1-2 > 76.9 µM
COCCNC(=O)CCn1c(=O)oc2ccccc21 > 76.9 µM
CCN(CC)C(=O)CSc1ncnc2c1cnn2Cc1ccccc1 > 76.9 µM
O=C(CN1CCN(Cc2ccccc2)CC1)NC(=O)NC1CCCCC1 > 76.9 µM
CC(C)(CO)NS(=O)(=O)c1ccc2c(c1)oc(=O)c1cc(S(=O)(=O)NC(C)(C)CO)ccc12
CCOC(=O)C1CCN(c2nc(C)nc3c2oc2ccccc23)CC1 > 76.9 µM
O=C(Nc1cc(C(F)(F)F)ccc1Cl)C1CCN(c2nnc(-n3cccc3)s2)CC1 > 76.9 µM
COc1ccc(NC(=O)c2cc3cc(OC)ccc3oc2=N)cc1 > 76.9 µM
CCOC(=O)N1CCC(Nc2c(NCCCOC)c(=O)c2=O)CC1 > 76.9 µM
O=C(O)CCCC(=O)Nc1ccc(C(=O)NCc2cccnc2)cc1 > 76.9 µM
COc1ccc(-n2nc3cc(C)c(NC(=O)c4cccnc4)cc3n2)cc1 > 76.9 µM
O=C(c1cc2c(s1)CCCC2)n1cccn1 > 76.9 µM
Cn1c(=O)c2c(ncn2CC(=O)N2CCN(c3cccc(Cl)c3)CC2)n(C)c1=O > 76.9 µM
Cc1ccc(S(=O)(=O)NC2(C(F)(F)F)NC(=O)N(C)C2=O)cc1 (stereo not given) > 76.9 µM
Cc1ccc(S(=O)(=O)N2CCN(C(=O)CN3CCc4ccccc4C3)CC2)cc1 > 76.9 µM
C/C(CC1(O)C(=O)N(C)c2ccccc21)=N\O (stereo not given) > 76.9 µM
O=C(Nc1nnc(C2CCCC2)s1)C1CCN(S(=O)(=O)c2ccc(Cl)cc2)CC1 > 76.9 µM
O=C(NC1CCCC1)C1CCCN1C(=O)Nc1ccc(Cl)cc1 (stereo not given) > 76.9 µM
O=C1c2cccnc2-c2ncccc21 > 76.9 µM
O=S(=O)(c1cccc(-c2nnc(SCc3nc4ccccc4s3)o2)c1)N1CCOCC1 > 76.9 µM
Cc1cccc(-n2c(SCc3cc(=O)n4ccsc4n3)nc3ccccc32)c1 > 76.9 µM
CCCCOc1ccc(N2C(=O)CC(N(O)c3ccccc3)C2=O)cc1 (stereo not given) > 76.9 µM
COC(=O)c1ccc(Cn2nnc3ccccc3c2=O)o1 > 76.9 µM
Cc1cc(C)cc(OCC(=O)NC2=NCCS2)c1 > 76.9 µM
N#CNC1=NCN(CCc2ccccc2)CN1 > 76.9 µM
O=C1NC(=O)C(CC(=O)N(Cc2ccco2)C2(C(=O)NC3CCCC3)CCCCC2)N1 (stereo not given) > 76.9 µM
CCCCC(=O)N(CCOC)c1nnc(-c2ccc(OC)cc2)s1 > 76.9 µM
CC(=O)c1cccc(S(=O)(=O)N(CCCO)Cc2cc3ccc(C)cc3[nH]c2=O)c1 > 76.9 µM
CCCC(CCC(=O)OC)(C(=O)OCC)c1csc(N)n1 (stereo not given) > 76.9 µM
CC(=O)Nc1ccc(S(=O)(=O)N2CCCN(S(=O)(=O)c3ccc(C)cc3)CC2)cc1 > 76.9 µM
O=C(O)CC1NC(=O)N(c2ccccc2)C1=O (stereo not given) > 76.9 µM
Cc1ccc(CNc2ccc3c(c2)OCO3)c(C)c1 > 76.9 µM
COc1ccc(NC(=O)CSc2nc(C)cc(C(F)(F)F)n2)cc1 > 76.9 µM
COc1ccc(CCN(Cc2nc3ccccc3c(=O)[nH]2)C(=O)c2ccco2)cc1 > 76.9 µM
CCOC(=O)c1cnc(-n2nc(C)cc2C)nc1NCc1ccc2c(c1)OCO2 > 76.9 µM
CCCCCn1c(CN2CCN(c3cccc(Cl)c3)CC2)nc2c1c(=O)n(C)c(=O)n2C > 76.9 µM
CCOC(=O)Cc1c(C)c2c(O)cc(O)cc2oc1=O > 76.9 µM
CC(C)NS(=O)(=O)c1cc(C(=O)O)ccc1Cl > 76.9 µM
O=C(Cn1[nH]c(=O)c2ccccc2c1=O)Nc1cccc(-c2nnc3n2CCCCC3)c1 > 76.9 µM
O=C(c1cnn2c(C(F)F)cc(-c3ccccc3)nc12)N1CCSCC1 > 76.9 µM
CCOc1cc2[nH]c(=S)n(CCOC)c(=O)c2cc1OCC > 76.9 µM
O=C(Nc1ccc(N2CCN(C(=O)c3ccco3)CC2)c(Cl)c1)c1cccs1
CCCc1cc(=O)n2[nH]c(NCc3ccc(Cl)cc3Cl)nc2n1 > 76.9 µM
CCN1CCN(S(=O)(=O)c2ccc(S(=O)(=O)N(CC)Cc3ccccc3)cc2)CC1
CCn1c(C)c(C(C)=O)c(N2CCN(c3ccccn3)CC2)nc1=S > 76.9 µM
O=C(NC1CCCCCC1)c1cc(S(=O)(=O)N2CCC3(CC2)OCCO3)ccc1F > 76.9 µM
O=C(OCc1ccc2c(c1)OCO2)c1ccc(S(=O)(=O)N2CCCC2)cc1 > 76.9 µM
Cc1nc(CC(=O)N2CCN(S(=O)(=O)c3ccccc3C#N)CC2)cs1 > 76.9 µM
OC(CN1CCN(c2cccc(C(F)(F)F)c2)CC1)c1c[nH]c2ccccc12 (stereo not given) > 76.9 µM
CCOCc1nnc(NC(=O)c2cccs2)s1
O=C(c1ccc(-c2ccccc2)cc1)N1CCN(c2ncccn2)CC1 > 76.9 µM
CCOC(=O)C1CCN(CC(=O)Nc2c(C(=O)OC)[nH]c3ccc(Cl)cc23)CC1 > 76.9 µM
COc1ccccc1NC(=O)N1CCn2c(nc3ccccc32)C1 > 76.9 µM
CCC(=O)Nc1nc2ccccc2n1CCN(CC)CC > 76.9 µM
Fc1ccc(C2CC(c3ccc(F)cc3)n3ncnc3N2)cc1 (stereo not given) > 76.9 µM
Cc1cc(=O)n2[nH]c(-c3ccccc3Cl)cc2n1 > 76.9 µM
CCOC(=O)Nc1ccc2c(c1)N(C(=O)CCN1CCOCC1)c1ccccc1S2=O (stereo not given) > 76.9 µM
Cc1ccc2nc3c(cc2c1)CN(Cc1ccco1)C(=NCC1CCCO1)S3 (stereo not given) > 76.9 µM
CCc1ccc(S(=O)(=O)NCCc2cn3ccccc3n2)s1 > 76.9 µM
COC(=O)CSc1nnc(-c2ccoc2C)n1-c1ccc(C)cc1 > 76.9 µM
CC1CCCN(CCC(=O)c2ccc(Br)cc2)C1 (stereo not given) > 76.9 µM
CC(C)NS(=O)(=O)c1ccc(OCC(=O)NCc2ccccc2)cc1 > 76.9 µM
Cc1ccc(S(=O)(=O)NCCCCCC(=O)NC(C)(C)CO)cc1 > 76.9 µM
CSc1nc2ccc(S(=O)(=O)Nc3c(C)n(C)n(-c4ccccc4)c3=O)cc2s1 > 76.9 µM
O=C(Nc1nc(-c2ccc(S(=O)(=O)N3CCCC3)cc2)cs1)C1COc2ccccc2O1 (stereo not given) > 76.9 µM
O=C(NCc1ccco1)c1cc2nc(C3CC3)cc(C(F)(F)F)n2n1 > 76.9 µM
CC(OC(=O)c1ccco1)C(=O)NC1CCCCC1 (stereo not given) > 76.9 µM
Cc1cc(NC(=O)c2cc(-c3ccco3)on2)no1 > 76.9 µM
CCCCn1c(CN2CCN(C)CC2)nc2ccccc21 > 76.9 µM
O=C(c1cccs1)N(CCO)Cc1cc2cc3c(cc2[nH]c1=O)OCCO3 > 76.9 µM
O=C(Nc1ccc2c(c1)OCO2)C1CCCN1C(=O)Nc1ccccc1F (stereo not given) > 76.9 µM
O=c1c2c3nc4ccccc4nc3n(Cc3ccccc3)c2ncn1Cc1ccco1 > 76.9 µM
Cc1ccc(NC(=O)Cn2cccc2)c(Br)c1 > 76.9 µM
COCCn1nnnc1C(c1ccccc1)N1CCN(C)CC1 (stereo not given) > 76.9 µM
Cc1cccn2cc(-c3ccccc3)nc12 > 76.9 µM
FC(F)(F)c1cccc(-c2nnc3ccc(C(F)(F)F)cn23)c1 > 76.9 µM
COC(=O)c1cn(NC(=O)c2cccc(N(C)C)c2)c(=O)c2ccccc12 > 76.9 µM
